In PubChem BioAssay AID743279 (National Center for Advancing Translational Sciences (NCATS), 2014):
In all, about 360,000 compounds went through this assay and about 17,000 (4.7%) were called active. The inconclusive results got no clear call from the source; some entries with a clear call stand among them for comparison. Rule as the data show it: active = activity change below about -50%; inconclusive = mostly about -30% to -49%; inactive = weaker than that.

Test: qHTS for Inhibitors of Inflammasome Signaling: IL-1-beta AlphaLISA Primary Screen
Conditions: THP-1 LPS/ATP IL-1B secretion, 16 h; at 57.5 µM, stronger effect = lower value
Outline: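 THP-1 cells pretreated 1 hr with compounds (up to 57.5 uM final), then stimulated with LPS (250 ng/mL final) plus ATP (1.25 mM final); secreted IL-1B measured by AlphaLISA after 16 hr, decreased signal indicating inhibition.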
% is scaled to controls: 0 for no effect and ±100 for the full control effect.

Activity change, inactive:
CC1CCCC(C)N1C(=O)Cn1cnc2cc([N+](=O)[O-])ccc2c1=O (stereo not drawn) 34.5%
COc1ccc(CCn2c(-c3ccc(C(C)(C)C)cc3)n[nH]c2=S)cc1OC 45.3%
Cc1ccc(-c2c(C(=O)N3CCOCC3)oc(=O)c3ccccc23)cc1 -3.04%
C=CCN(CC=C)C(=O)c1ccc(OC2CCN(S(=O)(=O)N(C)C)CC2)cc1 13.9%
CCc1nc2ccc(C(=O)NCCCN3CCCC3=O)cn2c1N(CC)Cc1cccc(Br)c1 0.908%
CC1CCN(C(=O)/C(=C/c2ccccc2Cl)c2ccccc2)CC1 -6.98%
CCC(=O)Nc1ccc(-c2nn3c(C)nnc3s2)cc1C 24.5%
COCCCN(C(=O)c1cc(Cl)nc2ccccc12)c1c(N)n(Cc2ccccc2)c(=O)[nH]c1=O 11.4%
Cc1nc2ccccc2c(=O)n1/N=C/c1ccc(O)c(O)c1O 8.49%
O=C(C1CCCN(S(=O)(=O)c2cccc3nsnc23)C1)N1CCCCCC1 (stereo not drawn) 10.9%
COc1cccc(CNC(=O)[C@@H]2CCCN2C(=O)[C@@H]2CCCN2C(=O)c2ccccc2)c1 0%
COc1ccc(NC(=O)C(C)N2c3cccc4cccc(c34)S2(=O)=O)cc1OC (stereo not drawn) -0.833%
COc1cccc(OC)c1C(=O)Nc1ccccc1N1CCCC1 -11.5%
CC(C)S(=O)(=O)N1CCCC(c2cc(C(=O)NCc3ccccc3)no2)C1 (stereo not drawn) -14.4%
O=C(c1ccc2c(=O)n(-c3ccccc3)c(=S)[nH]c2c1)N1CCCCC1 10.8%
Cc1ccc(C(C)(C)C)cc1S(=O)(=O)Nc1nc2ccccc2nc1Cl -14.2%
Fc1ccccc1-c1cc2ccccc2cn1 0.693%
CCN1CCN(S(=O)(=O)Cc2ccccc2)CC1 1.13%
O=C1CCC/C(=N\NC(=O)COc2ccc(Cl)cc2)C1 16.3%
Cc1ccc(NS(=O)(=O)c2cccc(C(=O)NNC(=O)c3cccn3C)c2)c(C)c1 -29.3%
Brc1cc2ccccc2[n+](Cc2ccccc2)c1 17.2%
CCOC(=O)c1nc(C)nc(Sc2n[nH]c(-c3ccc(C(C)(C)C)cc3)n2)c1C -17.5%
C=CCNc1nc(C(F)(F)F)nc2c1nnn2Cc1ccccc1Cl 0%
CC(C)c1ccc(-n2nc3ccc(N)cc3n2)cc1 21.9%
O=S(=O)(c1ccc(Cl)cc1)N1CCCc2ccccc21 21.8%
O=C(NC(=S)Nc1nc2c(s1)CCCC2)c1ccccc1 0%
O=C(COc1ccc2ccc(=O)oc2c1)NCCCn1ccnc1 12.6%
Cc1nn(C)c(C)c1CNC(=O)c1cnn2c1NC(c1ccccc1)CC2C(F)(F)F (stereo not drawn) -4.28%
CCN1C(=O)[C@H]2[C@@H](c3ccc(-c4ccc(OC)cc4)c(OC)c3)N[C@@](C)(C(=O)OC)[C@H]2C1=O 7.04%

Activity change, active:
CC(C)(C)c1ccc(-c2nc(NCc3cccnc3)c3ccccc3n2)cc1 -65.5%
COc1ccc(-c2cc(C3CCN(C(=O)OC(C)(C)C)CC3)[nH]n2)cc1 -83.6%
O=C(CCNS(=O)(=O)c1ccccc1)N1CCC(Cc2ccccc2)CC1 -50.1%
COc1cccc(/C=N/Nc2nc3ccccc3n3cnnc23)c1O -112%
COc1ccccc1NC(=S)N(Cc1cccs1)C1CCCC1 -62.5%
Cc1cc(C)c2nc(N(CCCN(C)C)C(=O)c3ccc(S(=O)(=O)N4CC(C)OC(C)C4)cc3)sc2c1 (stereo not drawn) -95.8%
C#CCOCCOCCOCCNc1nc(N2CCN(C(=O)CCCCCCCCCCNC(=O)[C@H](CCCCN)n3cc(C[C@@H](C)CC)nn3)CC2)nc(N2CCN(C(=O)CCCCCCCCCCNC(=O)[C@H](CCCN=C(N)N)n3cc(C[C@@H](C)CC)nn3)CC2)n1 -52.3%
Cc1ccnc(N2C(=O)c3cccc4c([N+](=O)[O-])ccc(c34)C2=O)c1 -101%
Cc1ccc2nc3c(c(Nc4ccc5c(c4)OCCO5)c2c1)CCC3 -92.2%
O=C(Nc1ccc2nc(C3CC3)n(Cc3ccc(F)cc3)c(=O)c2c1)c1ccco1 -50.9%
O=C1C=C(Nc2cccnc2)c2ccccc2C1=O -70.2%
COc1ccc(CNCCC(c2ccc(OC)cc2)c2ccccc2OC)cc1 (stereo not drawn) -83.1%

Activity change, inconclusive:
Cc1cccc(/C=C/c2onc(C)c2S(=O)(=O)N2CCC(C(=O)N3CCCCCC3)CC2)c1 -41.7%
NC(=O)c1ccc(Oc2ccc3c(c2)CCC3)c([N+](=O)[O-])c1 -37.4%
Cn1cccc1Cc1nnc(SCC(=O)NCc2ccco2)n1CCc1ccccc1 -31.4%
C=CCc1cc(/C=C2/NC(=O)N(CC)C2=O)cc(OCC)c1OCc1ccc(C(=O)O)cc1 -36.9%
C/C=C/c1ccc(OCC(O)CN(C)Cc2ccc(SC)cc2)c(OC)c1 (stereo not drawn) -32.7%
CNCC[C@H](Oc1cccc2ccccc12)c1cccs1 -37.6%
CC1Oc2ccccc2C=C1/C=N/NC(=O)[C@@H](C)NC(=O)OC(C)(C)C (stereo partly drawn) -33.2%
CSc1nc(SCC(=O)NC(c2ccccc2)c2ccccc2)c2c3c(sc2n1)CN(C)CC3 -35.2%
O=C(Cn1nnc(-c2ccc(F)cc2)n1)NC(=O)NC1CCCCC1 -38%
CCOC(=O)C1(Cc2cccc(OC)c2)CCN(Cc2cccc(O)c2)CC1 -36%
CCNC(=S)NC1CC2CCCC(C1)N2CCc1ccccc1 (stereo not drawn) -43.1%
O=C(CN1CCN(S(=O)(=O)c2ccc(Cl)s2)CC1)N1CCCCC1 -31.1%
Cc1cccc(NC(=O)c2nc[nH]c2C(=O)N[C@@H](C)c2ccccc2)c1 -40.4%
Cc1ccc(N=Cc2cc3c(cc2O)OC(N)=C(C#N)C3c2ccccc2)cc1 (stereo not drawn) -30.5%
CCCC(=O)NC(c1cccs1)c1cc([N+](=O)[O-])c2cccnc2c1O (stereo not drawn) -41.4%
COc1ccc(Cn2nnnc2CN2CCC(c3nc4ccccc4s3)CC2)cc1 -31.8%
COCCCNCCOCCSc1ccc(Cl)cc1 -42.3%
C=CCOc1cccc(C2C(C(=O)c3ccc(C)o3)=C(O)C(=O)N2CCN2CCOCC2)c1 (stereo not drawn) -34.7%
Cc1ccc(C(c2c(C)[nH][nH]c2=O)c2c(C)[nH][nH]c2=O)cc1 -36.6%
O=C(NN1C(=O)c2ccccc2NC1c1ccoc1)c1ccc([N+](=O)[O-])cc1 (stereo not drawn) -43.1%
CCCNc1c(NS(=O)(=O)c2ccc(C)c(C)c2)c(=O)oc2ccccc12 -47.4%
COc1ccc(/C=C/C(=O)NCc2cn(C)nc2C)cc1COc1ccc(Br)cc1 -46.1%
CCOC(=O)C1CCN(C(=O)CCCn2nc(C)c3c(C)n(-c4ccc(C)cc4)nc3c2=O)CC1 -36%
O=C(c1cccc(C(F)(F)F)c1)N1CCOC12CCN(c1ncc(C(F)(F)F)cc1Cl)CC2 -35.8%
Cc1nc(NC(=O)c2cccc(Cl)c2)sc1C(=O)N1CCCCC1 -49.9%
CCN(CC(=O)NCc1ccc(Cl)cc1)C(=O)/C=C/c1cc(OC)c(OC)c(OC)c1 -30.7%
O=S(=O)(c1ccccc1)N1CCN(Cc2c(O)ccc3ccccc23)CC1 -38.5%
CCCN(CC(=O)NC(=O)NC1CCCCC1)CC(=O)Nc1cc(Cl)ccc1Cl -32.5%
CCCN(Cc1nc(-c2ccc(Cl)cc2)no1)CC1CCCO1 (stereo not drawn) -33.1%
O=C(Nc1ccccc1)N1CCN2C(=O)c3ccccc3C12c1ccccc1 (stereo not drawn) -34%
CNC(=O)CSc1nnc(-c2ccco2)n1-c1cc(C)ccc1C -36.1%
CCCCCCSc1ccc([C@H]2N[C@@](CC(C)C)(C(=O)OC)[C@H]3C(=O)N(C)C(=O)[C@@H]23)cc1 -33.4%
COc1ccc(C(=O)C2CCCN(C/C=C/c3ccccc3OC)C2)c(OC)c1 (stereo not drawn) -37.8%
COC(=O)[C@@]12C[C@@H](CC(=O)N3CCN(C(=O)c4ccco4)CC3)C(=O)N(Cc3ccc4c(c3)OCO4)C1=CCC(C)(C)C2 -31.9%
COc1cc(/C=c2\sc3n(c2=O)C(c2ccccc2)C(c2ccccc2)=NN=3)ccc1O (stereo not drawn) -36.9%
Cc1cccc(OCC(=O)N(Cc2ccccc2)c2c(N)n(Cc3ccccc3)c(=O)[nH]c2=O)c1 -40.6%
CCCCCCC(C)n1[nH]c(=O)c2c(C)cc(=O)[nH]c21 (stereo not drawn) -33.5%
Cc1nc(C(=O)Nc2ccc(F)cc2)nn1-c1ccc([N+](=O)[O-])cc1 -30.3%
COc1ccc(C[C@H]2CN3C(=NC[C@H]3C)N2CCNC(=O)c2ccc(C)c(Br)c2)cc1 -40.7%
O=C(Nc1cccc(F)c1)c1ccc2c(c1)OCCO2 -32.8%
Cc1noc2ncnc(SCc3ccc(C(F)(F)F)cc3)c12 -38.4%
N#CC1=C2SCN(c3ccccc3)CN2C(=O)CC1c1cccs1 (stereo not drawn) -30.6%
